Key:
Test in all cases: minimum inhibitory concentration
[1] = compound: CN[C@@H]1[C@H](O[C@H]2[C@H](O[C@H]3[C@H](O)[C@@H](O)[C@H](N=C(N)N)[C@@H](O)[C@@H]3N=C(N)N)O[C@@H](C)[C@]2(O)C=O)O[C@@H](CO)[C@H](O)[C@H]1O [Streptomycin]
Protocol: (§1)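 Broth microdilution MIC per ISO 10932 on precoated VetMIC Lact-1 plates (tylosin, vancomycin and ampicillin plates prepared manually) against lactic acid bacteria and bifidobacteria isolates. Plates were read visually after 48 h anaerobic incubation (bifidobacteria 72 h; enterococci and staphylococci 24 h aerobic) at species-specific temperatures of 30 or 37 °C. Values prefixed with < or > are outside the tested dilution range.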

[2] = compound: NC[C@@H]1O[C@H](O[C@H]2[C@@H](O)[C@H](O[C@@H]3[C@@H](O)[C@H](N)C[C@H](N)[C@H]3O[C@H]3O[C@H](CN)[C@@H](O)[C@H](O)[C@H]3N)O[C@@H]2CO)[C@H](N)[C@@H](O)[C@@H]1O [Neomycin]
Protocol: as §1

[3] = compound: O=C(N[C@H](CO)[C@H](O)c1ccc([N+](=O)[O-])cc1)C(Cl)Cl [Chloramphenicol]
Protocol: as §1

[4] = compound: CN(C)[C@@H]1C(O)=C(C(N)=O)C(=O)[C@@]2(O)C(O)=C3C(=O)c4c(O)cccc4[C@@](C)(O)[C@H]3C[C@@H]12 [Tetracycline]
Protocol: as §1

[5] = compound: CNC(C)C1CCC(N)C(OC2C(N)CC(N)C(OC3OCC(C)(O)C(NC)C3O)C2O)O1 [Gentamicin]
Protocol: as §1

[6] = compound: CC[C@H]1OC(=O)[C@H](C)[C@@H](O[C@H]2C[C@@](C)(OC)[C@@H](O)[C@H](C)O2)[C@H](C)[C@@H](O[C@@H]2O[C@H](C)C[C@H](N(C)C)[C@H]2O)[C@](C)(O)C[C@@H](C)C(=O)[C@H](C)[C@@H](O)[C@]1(C)O [Erythromycin]
Protocol: as §1

[7] = compound: CN[C@H](CC(C)C)C(=O)N[C@H]1C(=O)N[C@@H](CC(N)=O)C(=O)N[C@H]2C(=O)N[C@H]3C(=O)N[C@H](C(=O)N[C@H](C(=O)O)c4cc(O)cc(O)c4-c4cc3ccc4O)[C@H](O)c3ccc(c(Cl)c3)Oc3cc2cc(c3O[C@@H]2O[C@H](CO)[C@@H](O)[C@H](O)[C@H]2O[C@H]2C[C@](C)(N)[C@H](O)[C@H](C)O2)Oc2ccc(cc2Cl)[C@H]1O [Vancomycin]
Protocol: as §1

[8] = compound: NC[C@H]1O[C@H](O[C@H]2[C@H](O)[C@@H](O[C@H]3O[C@H](CO)[C@@H](O)[C@H](N)[C@H]3O)[C@H](N)C[C@@H]2N)[C@H](O)[C@@H](O)[C@@H]1O [Kanamycin]
Protocol: as §1

[9] = compound: CCC[C@@H]1C[C@@H](C(=O)N[C@@H]([C@H]2O[C@H](SC)[C@H](O)[C@@H](O)[C@H]2O)[C@H](C)Cl)N(C)C1 [Clindamycin]
Protocol: as §1

[10] = compound: CC1(C)S[C@@H]2[C@H](NC(=O)[C@H](N)c3ccccc3)C(=O)N2[C@H]1C(=O)O [Ampicillin]
Protocol: as §1
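Note: isolates derived from commercial starter, protective, probiotic or feed-additive cultures, from fermented products, from human gut mucosa or feces, and from human milk or colostrum.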

Row | Test System | minimum inhibitory concentration [1] [mg/L] | minimum inhibitory concentration [2] [mg/L] | minimum inhibitory concentration [3] [mg/L] | minimum inhibitory concentration [4] [mg/L] | minimum inhibitory concentration [5] [mg/L] | minimum inhibitory concentration [6] [mg/L] | minimum inhibitory concentration [7] [mg/L] | minimum inhibitory concentration [8] [mg/L] | minimum inhibitory concentration [9] [mg/L] | minimum inhibitory concentration [10] [mg/L]
1 | Bifidobacterium adolescentis IM678 (strain group: human intestinal mucosa or faeces) | 32 | 32 | 2 | 16 | 32 | 0.12 | 0.5 | 256 | 0.06 | 0.125
2 | Lactobacillus gasseri IM854 (strain group: human milk or colostrum) | 16 | 16 | 4 | 2 | 4 | 0.25 | 1 | 128 | 8 | 1
3 | Lactobacillus gasseri IM853 (strain group: human milk or colostrum) | 4 | 16 | 4 | 2 | 2 | 0.12 | 2 | 128 | 4 | 1
4 | Bifidobacterium adolescentis IM757 (strain group: human intestinal mucosa or faeces) | 128 | 64 | 2 | 1 | 64 | 0.12 | 0.5 | 512 | 0.06 | 0.25
5 | Streptococcus thermophilus IM1369 (strain group: starter cultures) | 16 | 8 | 2 | 1 | 8 | 0.5 | 0.5 | 64 | 0.12 | < 0.032
6 | Levilactobacillus brevis IM1471 (strain group: starter cultures) | 16 | 2 | 8 | 32 | 1 | 0.5 | > 128 | 64 | 16 | 8
7 | Bifidobacterium animalis subsp. lactis IM560 (strain group: probiotic strains) | 64 | 64 | 2 | 16 | 64 | 0.25 | 0.5 | 256 | 0.12 | 0.125
8 | Streptococcus thermophilus IM1417 (strain group: starter cultures) | 4 | < 0.5 | 2 | 0.25 | < 0.5 | 0.03 | < 0.25 | < 2 | < 0.03 | 0.125
9 | Bifidobacterium adolescentis IM758 (strain group: human intestinal mucosa or faeces) | 128 | 256 | 2 | 1 | 128 | 0.12 | 0.5 | 512 | 0.12 | 0.125
10 | Lactobacillus gasseri IM888 (strain group: human milk or colostrum) | 2 | 8 | 4 | 2 | 1 | 0.03 | 1 | 16 | 4 | 0.5
11 | Bifidobacterium bifidum IM1396 (strain group: probiotic strains) | 32 | 256 | 2 | 1 | 64 | 0.12 | 1 | 512 | 0.12 | 0.125
12 | Bifidobacterium adolescentis IM671 (strain group: human intestinal mucosa or faeces) | 128 | 256 | 2 | 16 | 128 | 0.12 | 0.5 | 512 | 0.06 | 0.125
13 | Bifidobacterium adolescentis IM684 (strain group: human intestinal mucosa or faeces) | 128 | 256 | 2 | 16 | 128 | 0.25 | 0.5 | 512 | 4 | 0.125
14 | Bifidobacterium adolescentis IM803 (strain group: human intestinal mucosa or faeces) | 128 | 128 | 2 | 1 | 128 | 0.25 | 0.5 | 1020 | 0.06 | 0.125
15 | Lactobacillus gasseri IM826 (strain group: human milk or colostrum) | 4 | 8 | 4 | 1 | 2 | 0.12 | 1 | 64 | 8 | 0.5
16 | Bifidobacterium adolescentis IM751 (strain group: human intestinal mucosa or faeces) | 256 | 256 | 2 | 16 | 128 | 0.25 | 0.5 | 1020 | 0.12 | 8
17 | Bifidobacterium adolescentis IM763 (strain group: human intestinal mucosa or faeces) | 256 | 128 | 2 | 1 | 128 | 0.12 | 0.5 | 1020 | 0.06 | 0.125
18 | Bifidobacterium animalis subsp. lactis IM559 (strain group: probiotic strains) | 64 | 64 | 2 | 8 | 256 | 0.25 | 0.5 | 256 | < 0.03 | 0.25
19 | Bifidobacterium adolescentis IM788 (strain group: human intestinal mucosa or faeces) | 256 | > 256 | 2 | 16 | 256 | 0.25 | 0.5 | 1020 | 0.12 | 0.125
20 | Lacticaseibacillus casei IM1380 (strain group: probiotic strains) | 16 | 2 | 8 | 2 | 1 | 0.25 | > 128 | 32 | 4 | 1
21 | Lactococcus lactis IM1323 (strain group: non-starter strains) | > 256 | 8 | 8 | 32 | 4 | 1 | 0.5 | 16 | 0.5 | 1
22 | Lactobacillus helveticus IM1446 (strain group: starter cultures) | 1 | < 0.5 | 2 | 2 | < 0.5 | 0.03 | < 0.25 | 8 | 1 | 0.5
23 | Lactiplantibacillus plantarum IM1422 (strain group: starter cultures) | 64 | 4 | 8 | 16 | 4 | 0.5 | > 128 | 64 | 1 | 2
24 | Lactobacillus delbrueckii IM1117 (strain group: non-starter strains) | 8 | 8 | 4 | 2 | 2 | 0.12 | 2 | 32 | 0.12 | 1
25 | Bifidobacterium breve IM891 (strain group: human milk or colostrum) | 32 | 256 | 2 | 1 | 32 | 0.06 | 2 | 256 | 0.06 | 2
26 | Bifidobacterium adolescentis IM785 (strain group: human intestinal mucosa or faeces) | > 256 | > 256 | 4 | 8 | 256 | 0.25 | 0.5 | 1020 | 0.12 | 0.125
27 | Lactococcus lactis IM1328 (strain group: non-starter strains) | 32 | 4 | 4 | 0.5 | 2 | 1 | 0.5 | 8 | 0.5 | 1
28 | Bifidobacterium adolescentis IM674 (strain group: human intestinal mucosa or faeces) | 16 | 16 | 1 | 0.5 | 32 | 8 | 2 | 256 | 0.25 | 0.125
29 | Bifidobacterium adolescentis IM767 (strain group: human intestinal mucosa or faeces) | 128 | 256 | 2 | 16 | 128 | 0.25 | 1 | 512 | 0.12 | 0.063
30 | Lactococcus lactis IM1320 (strain group: non-starter strains) | 16 | 8 | 4 | 0.5 | 2 | 1 | 0.5 | 4 | 0.5 | 0.5
